Assay results published in patent US20240254096A1, “ULTRAVIOLET AND VISIBLE RADIATION ABSORBING COMPOUNDS” (ELKIMIA INC., priority 2021, published 2024).
Some entries of the source have several records that differ or are many. The other results are left out here. An entry can have further records. Results that share an entry seem to repeat one measurement (runs, samples, wells or individuals).

Experiment: Thermal stability by Thermogravimetric Analysis (TGA)
Type: physicochemical
Procedure: Briefly, the residual weight (%) of the compounds was measured at different temperatures, including 100° C. for water boiling, and other temperatures corresponding to extrusion processes, and the T onset (° C.) by intersection points of tangents was checked. The results are represented in Table 16 below, and in FIG. 6.

In the case of `C#Cc1ccc(NC2C=C(NCC(=O)OCC)CC(C)(C)C2)cc1` (stereo not shown) [Formula 76], the Td max is reported as 260.9 °C and 253.3 °C [lines of one column].
